“And” between values parts separate entries of the source, which are not always exact repeats. Equal entries are not always repeated. Screen size: about 420,000 compounds; about 64,000 (15%) were called active. Inconclusive results, whose numbers are uncertain, are shown with a selection of clear calls. The call rests on the fitted dose curve; in most records, active means well fitted inhibition curve with a large enough effect; inconclusive means small, poorly fitted or top-dose-only effect; inactive means flat fitted curve, though single readings scatter. Potencies of inconclusive entries are left out as doubtful fits.
test: qHTS for Inhibitors of human tyrosyl-DNA phosphodiesterase 1 (TDP1): qHTS in cells in absence of CPT; details: DT40 Tdp1-/- hTDP1 cells, no CPT, ATP luminescence, 48 h; activity change, negative = growth inhibition: at 46.2 µM (top of the series) unless noted; further: nearly all actives have a fitted effect of over 55% in size
Method in brief: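 Chicken DT40 Tdp1-/- cells stably complemented with human TDP1 were seeded at 400 cells/well with DMSO in place of 20 nM camptothecin. After compound pinning, cells grew at least 48 hr at 37 °C; viability read by CellTiter-Glo luminescence.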
On the % scale 0 is the no-effect control and ±100 the full control effect; potency means the concentration at half of the fitted maximal effect; tags describe the fitted curve by direction and shape.

Row | Structure (SMILES) | Potency | activity change, negative = growth inhibition
1 | COc1cccc(Nc2ncc3nc(-c4cc(F)cc(F)c4)c(=O)n(CCC#N)c3n2)c1 | active: 16.4 µM | –
2 | COc1ccc(S(=O)(=O)NNC(=O)C2COc3ccccc3O2)cc1[N+](=O)[O-] (stereo not given) | inactive | –
3 | COc1cccc(N(CC(=O)NC2CCCCC2)C(=O)CCC(=O)Nc2nc(C)cs2)c1 | inconclusive [inhibitor, partial curve, poor fit] | –
4 | CNc1nc(-c2ccc3c(c2)CCN3C(=O)c2cccc(F)c2)cs1 | active: 20.6 µM | –
5 | N/C(=N\c1nc2ccccc2o1)NC(=O)c1ccccc1 | inconclusive [inhibitor, single point] | –
6 | Cc1nc(CS(=O)(=O)c2ccccc2)cc(Sc2ccc(Cl)cc2)n1 | inconclusive [inhibitor, partial curve] | –
7 | C#Cc1ccc([C@@H]2C=C(C(=O)N3CCOCC3)O[C@H](OCc3ccc(CO)cc3)C2)cc1 | inconclusive [inhibitor, single point] | –
8 | Cc1nn(CC(C)C)c(Cl)c1C(=O)N(c1ccc(Cl)cc1F)S(C)(=O)=O | inconclusive [inhibitor, single point] | –
9 | O=S(=O)(c1ccc(Br)cc1)N1CCOC12CCCCC2 | inactive | –
10 | O=C(CCS(=O)(=O)c1ccc(Cl)cc1)Oc1ccc2c(c1)OCO2 | inconclusive [inhibitor, single point] | –
11 | NS(=O)(=O)c1ccc2c(c1)C1C=CCC1C(C1CC=CCC1)N2 (stereo not given) | inconclusive [inhibitor, single point] | –
12 | CCSc1c([N+](=O)[O-])c(=O)n(-c2ccccc2)c2ccccc12 | inconclusive [inhibitor, partial curve] | –
13 | Cc1ccc(-c2nc3c(C)cc(Br)cn3c2Cc2ccccc2)cc1 | inconclusive [inhibitor, partial curve] | –
14 | CCCS(=O)(=O)c1nc(S(=O)(=O)c2ccc(C)cc2)c(NCc2ccccc2)s1 | inconclusive [inhibitor, single point] | –
15 | COC(=O)[C@H]1C[C@@]2(O)CN(S(=O)(=O)c3ccc(C)cc3)C[C@@]2(OC(=O)NC2CCCC2)C[C@H]1C(=O)OC | inactive | –
16 | C#Cc1cccc(C(=O)N(Cc2cccnc2)CC2CCCN(C3CCCCC3)C2)c1 (stereo not given) | inconclusive [inhibitor, single point] | –
17 | COc1ccc(Cl)cc1N(CC(=O)NC1CC2CCC1C2)S(=O)(=O)c1ccccc1 (stereo not given) | inconclusive [inhibitor, single point] | –
18 | Cn1c(SCC(=O)NCC2CCCO2)ncc(C(=O)Nc2ccc(Cl)cc2)c1=O (stereo not given) | active: 9.2 µM | –
19 | Cc1ccc(/C=C/c2onc(C)c2S(=O)(=O)N2CCC(C(=O)N3CCCCC3)CC2)cc1 | inconclusive [inhibitor, single point] | –
20 | COc1ccc(Cn2c(CO)cnc2SCC(=O)Nc2cccc(NC(C)=O)c2)cc1 | inactive | –
21 | Cc1ccc(NC2=C(Cl)C(=O)OC2OC(=O)c2ccco2)c(C)c1 (stereo not given) | inactive | –
22 | COc1ccc(C(=O)Nc2cc(OCc3ccccc3)c(Cl)cc2Cl)cc1 | inconclusive [inhibitor, partial curve] | –
23 | CC(=O)Nc1ccc(C(=O)OCC(=O)N(c2ccccc2)C2CCCCC2)cc1 | active: 23.1 µM | –
24 | Oc1ccccc1-n1c(-c2ccccc2)ccc1-c1ccccc1 | inactive | –

Row | Structure (SMILES) | Potency | activity change, negative = growth inhibition
25 | COc1ccc(C(C(=O)NCc2ccccc2)N(C(=O)c2snc(C(N)=O)c2N)C2CCCC2)cc1 (stereo not given) | inactive | –
26 | CCCCNC(=O)NS(=O)(=O)c1ccc(C(=O)OC(C)C)o1 | inactive | –
27 | Cc1ccc(N2C(=O)CC(Sc3ncn[nH]3)C2=O)cc1 (stereo not given) | active: 4.61 µM | –
28 | CCOc1ccccc1-n1ccn(CC(=O)Nc2ccc(Br)cc2F)c(=O)c1=O | inconclusive [inhibitor, single point] | –
29 | Cn1c(-c2ccccc2)cnc1NCc1ccccc1 | inconclusive [inhibitor, single point] | –
30 | O=[N+]([O-])c1ccc(N2CCN(c3cccc(Cl)c3)CC2)cn1 | inconclusive [inhibitor, single point] | –
31 | C=CCN1CCc2c(cc(O)c(O)c2Br)[C@@H](c2ccccc2)C1 | active: 7.31 µM | –
32 | C#CCOCCOCCOCCNc1nc(N2CCN(C(=O)C([C@@H](C)CC)n3cc(C(N)COC(=O)C(F)(F)F)nn3)CC2)nc(N2CCN(C(=O)[C@H](CCC(=O)O)n3cc(C(N)CC(C)C)nn3)CC2)n1 (stereo not given in full) | inactive | –
33 | CCOC(=O)c1c(N)sc(=S)c2c1CCC2 | inconclusive [inhibitor, partial curve, poor fit] | –
34 | COc1ccc(-n2c(=O)c(NC(=O)c3ccccc3)c3n(c2=S)CCCCC3)cc1 | inactive | –
35 | C=CCc1cc(C)ccc1OCCn1ccnc1 | inactive | –
36 | CCC(=O)N1CCc2cc(S(=O)(=O)CCC(=O)NCc3cccc(OC)c3)ccc21 | inconclusive [inhibitor, partial curve] | –
37 | CCc1ccc(NC(=O)C(=O)NNC(=O)c2ccc(OC)cc2)cc1 | inconclusive [inhibitor, single point] | –
38 | Cn1c(COc2ccccc2)nnc1SCC(=O)Nc1nnc(C2CC2)s1 | inconclusive [inhibitor, full curve, poor fit] | –
39 | CCOC(=O)c1cnc2ccc(OCC)cc2c1N(C)Cc1ccccc1 | active: 23.1 µM | –
40 | CCOC(=O)[C@@H]1[C@H]2COc3cc(OC)ccc3[C@@H]2N2C(=O)N(c3cccc(C)c3)C(=O)[C@]12C | inconclusive [inhibitor, single point] | –
41 | Cc1cccc(C)c1NC(=O)CSc1nnnn1-c1ccc(C(=O)O)cc1 | inactive | –
42 | O=C(O)C1CCCCC1C(=O)Nc1ccc(S(=O)(=O)N2CCCCC2)cc1 (stereo not given) | inactive | –
43 | Cc1ccc(Sc2ccc(N)cn2)cc1 | inactive | –
44 | CC(=O)OC(C(=O)Nc1nncs1)c1ccccc1 (stereo not given) | inactive | –
45 | CCCN(CC(=O)Nc1cc(Cl)ccc1Cl)C(=O)c1ccccn1 | inconclusive [inhibitor, partial curve] | –
46 | CCOc1ccc(NS(=O)(=O)c2ccc(C)c(C(N)=O)c2)cc1 | inconclusive [inhibitor, partial curve] | –
47 | O=C1CC(N2CCN(c3ccc(C(=O)c4ccc(F)cc4)cc3)CC2)C(=O)N1 (stereo not given) | inconclusive [inhibitor, single point] | –
48 | Cc1c(C(=O)NCCN2CCOCC2)sc2nc(-c3ccc(F)cc3)cn12 | inconclusive [inhibitor, single point] | –

Row | Structure (SMILES) | Potency | activity change, negative = growth inhibition
49 | Cn1nc(C(=O)OCC(=O)Nc2ccc(S(N)(=O)=O)cc2)c2ccccc2c1=O | inactive | –
50 | CC(C)[C@H](NC(=O)c1ccccc1Cl)C(=O)NC1CCCCCC1 | inactive | –
51 | Cc1ccc2c(c1)-c1c(cnn1CC(=O)Nc1ccccc1C#N)CO2 | inactive | –
52 | O=C1O/C(=C\C(=O)N2CCOCC2)c2ccccc21 | – | inconclusive: -31.7% [inhibitor]
53 | N=C(N)Cc1ccccc1Sc1ccccc1 | active: 8.2 µM | –
54 | Cc1cccc(CCNC(=O)C2CCC(CNS(=O)(=O)c3cccs3)CC2)c1 (stereo not given) | inconclusive [inhibitor, single point] | –
55 | COc1cccc(C2=NNC(=NCc3ccccc3)SC2)c1 | – | inconclusive: -34% [inhibitor]
56 | Cc1ccc(OCC(=O)Nc2cccc(S(=O)(=O)N3CCOCC3)c2)c([N+](=O)[O-])n1 | inconclusive [inhibitor, single point] | –
57 | CCOC(=O)C1CCN(C(=O)C23CC4CC(CC(C4)C2)C3)CC1 | inconclusive [inhibitor, single point] | –
58 | Cc1ccc(C(=O)COC(=O)CCC(=O)Nc2ccc(Oc3cc(C)ccc3C(C)C)cc2)cc1 | inconclusive [inhibitor, single point] | –
59 | COc1ccc(C(=O)Nc2ccc(S(=O)(=O)N3CCCC3)cc2)cc1[N+](=O)[O-] | inactive | –
60 | CCc1ccc(C2=NN(CCC(=O)NCCc3ccc(Cl)cc3)C(=O)CC2)cc1 | inconclusive [inhibitor, single point] | –
61 | COc1ccc(Cl)cc1NC(=O)CN1CCc2ccccc21 | inconclusive [inhibitor, partial curve] | –
62 | Cc1cc(-c2csc(N)n2)c(C)n1CCc1ccccc1 | inconclusive [inhibitor, single point] | –
63 | Cc1cc2ccccc2nc1SCC(=O)NC1CCCC1 | inconclusive [inhibitor, single point] | –
64 | Cc1ccc(S(=O)(=O)N2CCOC23CCN(S(=O)(=O)c2cccs2)CC3)cc1 | inconclusive [inhibitor, partial curve] | –
65 | Cc1noc(C)c1COc1ccccc1C(=O)NCCc1ccc(Cl)cc1 | inconclusive [inhibitor, single point] | –
66 | COc1cccc(C(=O)N2N=C(c3cccc(OC)c3)CC2(O)C(F)(F)F)c1 (stereo not given) | inconclusive [inhibitor, single point] | –
67 | CC(OC(=O)CCN=C1NS(=O)(=O)c2ccccc21)C(=O)N(C)c1ccccc1 (stereo not given) | inconclusive [inhibitor, single point] | –
68 | CC(=O)N1CCCc2cc(S(=O)(=O)N3CCCC(C(=O)N4CCN(c5cc(C)ccc5C)CC4)C3)ccc21 (stereo not given) | active: 4.11 µM and active: 6.51 µM | –
69 | CC(C)CCN(Cc1ccco1)S(=O)(=O)c1csc(C(N)=O)c1 | active: 23.1 µM | –
70 | O=C(CN1C(=O)CSc2ncccc21)Nc1cccc(Cl)c1 | inconclusive [inhibitor, full curve, poor fit] | –

Source: PubChem BioAssay AID686978 (National Center for Advancing Translational Sciences (NCATS), 2013)
